Test results: the supplement of paper PMC6531468
Some of the results follow. Read counts after selection give these values, which scatter widely. Each score is taken over the longer molecules that contain the sequence shown.

Tests used:
Assay in all cases: 6-mer SELEX enrichment z-score vs GST control; IMP3 is the RNA-binding protein IGF2BP3; higher = more enriched by binding
IMP3 KH1-4 = conditions: construct: KH1-4 (164-579); SELEX round: R4
Description: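 SELEX-seq with GST-tagged IMP3 KH1-4 (Pro164-Lys579) and an N40 RNA pool, round 4. 6-mer z-score of sequence-tag enrichment normalised to the corresponding GST SELEX round; RNA k-mers written as DNA (T for U).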

IMP3 RRM1-2 = conditions: construct: RRM1-2 (1-163); SELEX round: R2
Description: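 SELEX-seq with GST-tagged IMP3 RRM1-2 (Met1-Asn163) and an N40 RNA pool, round 2. 6-mer enrichment z-score normalised to GST SELEX. RNA written as DNA (T = U).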

IMP3 full-length = IMP3 full-length (UniProt O00425); conditions: construct: FL IMP3 (1-579); SELEX round: R4
Description: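 SELEX-seq with GST-tagged full-length IMP3 and an N40 RNA pool, round 4. Each 6-mer is scored as an enrichment z-score of sequence tags containing it, normalised to the matching GST SELEX round. RNA written as DNA (T = U).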

IMP3 KH1-2 = conditions: construct: KH1-2 (164-376); SELEX round: R4
Description: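 SELEX-seq with GST-tagged IMP3 KH1-2 (Pro164-Phe376) and an N40 RNA pool, round 4 (stringent 300/600 mM KCl washes). 6-mer z-score of sequence-tag enrichment normalised to the corresponding GST SELEX round; RNA k-mers written as DNA (T for U).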

IMP3 KH3-4 = conditions: construct: KH3-4 (377-579); SELEX round: R4
Description: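 SELEX-seq with GST-tagged IMP3 KH3-4 (Pro377-Lys579) and an N40 RNA pool, round 4. 6-mer z-score of sequence-tag enrichment normalised to the corresponding GST SELEX round; RNA k-mers written as DNA (T for U).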

UniProt O00425, sequence (O00425 whole entry): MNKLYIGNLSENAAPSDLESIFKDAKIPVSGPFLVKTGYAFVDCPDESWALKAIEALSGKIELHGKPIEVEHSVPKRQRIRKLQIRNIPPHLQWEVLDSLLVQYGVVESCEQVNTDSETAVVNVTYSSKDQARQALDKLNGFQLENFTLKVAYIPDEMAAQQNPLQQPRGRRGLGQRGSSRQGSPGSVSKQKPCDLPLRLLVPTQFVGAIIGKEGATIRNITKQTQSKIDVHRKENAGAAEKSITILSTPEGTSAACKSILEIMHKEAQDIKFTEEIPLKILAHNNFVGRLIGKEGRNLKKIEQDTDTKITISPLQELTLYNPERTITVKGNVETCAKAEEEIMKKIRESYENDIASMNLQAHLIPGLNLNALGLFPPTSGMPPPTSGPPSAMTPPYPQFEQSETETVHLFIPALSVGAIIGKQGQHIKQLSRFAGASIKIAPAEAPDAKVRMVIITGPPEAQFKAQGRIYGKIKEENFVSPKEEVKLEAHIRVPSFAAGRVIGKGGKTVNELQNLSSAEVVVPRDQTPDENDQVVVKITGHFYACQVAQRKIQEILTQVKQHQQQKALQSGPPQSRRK
IMP3 RRM1-2, sequence (chain, as listed by the source): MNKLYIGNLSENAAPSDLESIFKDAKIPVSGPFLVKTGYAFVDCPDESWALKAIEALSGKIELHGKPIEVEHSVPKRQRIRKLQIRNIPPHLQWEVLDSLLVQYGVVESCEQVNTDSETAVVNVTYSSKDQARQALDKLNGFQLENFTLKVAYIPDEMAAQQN
IMP3 KH1-2, sequence (chain, as listed by the source): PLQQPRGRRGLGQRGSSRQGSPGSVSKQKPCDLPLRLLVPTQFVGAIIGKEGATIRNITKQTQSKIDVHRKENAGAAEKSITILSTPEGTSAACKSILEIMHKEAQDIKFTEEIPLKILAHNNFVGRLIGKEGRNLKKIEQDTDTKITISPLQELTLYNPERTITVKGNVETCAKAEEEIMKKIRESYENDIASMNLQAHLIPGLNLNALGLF
IMP3 KH3-4, sequence (chain, as listed by the source): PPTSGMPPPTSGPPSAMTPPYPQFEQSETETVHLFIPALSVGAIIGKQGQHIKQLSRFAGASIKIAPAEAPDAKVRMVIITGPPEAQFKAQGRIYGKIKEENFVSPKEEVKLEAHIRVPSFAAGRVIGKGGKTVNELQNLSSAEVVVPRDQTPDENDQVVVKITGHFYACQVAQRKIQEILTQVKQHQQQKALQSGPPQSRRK
IMP3 KH1-4, sequence (chain, as listed by the source): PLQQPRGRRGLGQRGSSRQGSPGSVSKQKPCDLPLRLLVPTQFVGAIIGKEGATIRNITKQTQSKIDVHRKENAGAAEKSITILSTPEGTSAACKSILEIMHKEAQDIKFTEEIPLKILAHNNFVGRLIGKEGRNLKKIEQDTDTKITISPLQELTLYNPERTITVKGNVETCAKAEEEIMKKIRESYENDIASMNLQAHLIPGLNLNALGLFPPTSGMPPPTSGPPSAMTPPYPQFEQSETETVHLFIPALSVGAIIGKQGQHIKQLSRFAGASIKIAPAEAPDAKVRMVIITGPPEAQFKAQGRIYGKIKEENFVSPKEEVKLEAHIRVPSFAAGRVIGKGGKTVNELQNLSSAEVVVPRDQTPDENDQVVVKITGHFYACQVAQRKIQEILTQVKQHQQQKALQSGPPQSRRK

Row | Sequence | 6-mer SELEX enrichment z-score (IMP3 KH1-4) | 6-mer SELEX enrichment z-score (IMP3 RRM1-2) | 6-mer SELEX enrichment z-score (IMP3 full-length) | 6-mer SELEX enrichment z-score (IMP3 KH1-2) | 6-mer SELEX enrichment z-score (IMP3 KH3-4)
1 | CAATTA | 1.47 | 0.213 | 0.308 | 1.38 | 1.88
2 | TAAATC | 0.452 | -0.079 | -0.197 | 0.448 | 0.507
3 | TCTGAT | 0.479 | 0.096 | 0.229 | 0.46 | 0.436
4 | CAATCG | -0.614 | 0.027 | -0.027 | -0.762 | -0.913
5 | GGCCTT | 0.075 | 0.25 | 0.223 | 0.032 | 0.222
6 | AGTCAA | 0.263 | 0.068 | 0.275 | -0.101 | 0.012
7 | CCGCGT | -1.97 | -0.186 | -0.799 | -1.68 | -1.72
8 | AACGCT | -0.387 | -0.654 | -0.667 | -0.275 | -0.442
9 | CATCCA | 0.515 | 1.3 | 1 | 0.4 | -0.408
10 | CTTCAC | 0.548 | 1.02 | 0.452 | 0.68 | 0.038
11 | GAATAG | 0.743 | -0.73 | -0.308 | 0.462 | 1.1
12 | TGGCTG | 0.419 | 0.292 | 0.335 | 0.33 | 0.4
13 | AATTCA | 1.42 | 1.46 | 1.62 | 1.71 | 1.57
14 | CTAACA | 0.605 | 0.729 | 0.146 | 0.831 | 0.473
15 | GCGCCC | -0.828 | -0.355 | 0.117 | -0.506 | -1.13
16 | CATGTG | 0.58 | 0.455 | 0.493 | 0.268 | 0.342
17 | TAACGG | 0.297 | -0.477 | -0.145 | -0.019 | 0.49
18 | CGTCTG | -0.47 | 0.256 | 0.172 | -0.315 | -0.278
19 | ACCAAG | -1.31 | -0.318 | -1.21 | -1.38 | -1.5
20 | CGAACT | -1.1 | -0.851 | -1.02 | -0.961 | -1.07
21 | TAATAC | 1.26 | -0.356 | 0.004 | 1.21 | 1.5
22 | GTATCT | -0.397 | 0.344 | -0.066 | -0.271 | -0.17
23 | TAGGTA | -0.072 | 0.236 | 0.043 | -0.081 | 0.169
24 | TAGGTT | 0.145 | 0.432 | 0.072 | 0.137 | 0.365
25 | TGACGA | -0.801 | -1.11 | -0.883 | -0.841 | -0.703

Row | Sequence | 6-mer SELEX enrichment z-score (IMP3 KH1-4) | 6-mer SELEX enrichment z-score (IMP3 RRM1-2) | 6-mer SELEX enrichment z-score (IMP3 full-length) | 6-mer SELEX enrichment z-score (IMP3 KH1-2) | 6-mer SELEX enrichment z-score (IMP3 KH3-4)
26 | TGTAGG | -0.077 | 0.485 | -0.074 | -0.069 | 0.122
27 | GGTTGC | 0.013 | 0.378 | 0.075 | 0.005 | 0.048
28 | CTACGG | -0.034 | -0.127 | 0.105 | -0.159 | -0.134
29 | GCGTAG | -3.54 | -0.002 | -1.49 | -3.09 | -2.99
30 | GTAGGT | -0.103 | 0.304 | 0.081 | -0.019 | 0.141
31 | GATTAT | 1.09 | -0.066 | -0.019 | 0.742 | 1.43
32 | CACGAC | -0.587 | 1.27 | -0.018 | -0.609 | -1.27
33 | CATACT | 0.872 | 0.747 | 0.677 | 1 | 0.756
34 | TTGGAT | 0.148 | 0.303 | 0.011 | 0.095 | 0.309
35 | TTTATA | 1.29 | 0.228 | 0.357 | 1.28 | 2.07
36 | TTAGTG | 0.186 | 0.288 | -0.044 | 0.079 | 0.326
37 | ATTTAT | 1.54 | 0.274 | 0.52 | 1.41 | 2.23
38 | TTAGGC | 0.321 | 0.511 | 0.333 | 0.22 | 0.532
39 | GTAGTA | -0.543 | 0.097 | -0.321 | -0.493 | -0.364
40 | GCGAGG | -0.336 | -0.107 | 0.264 | -0.18 | -0.125
41 | CGGCAT | 1.55 | 0.557 | 2.56 | 0.867 | 0.838
42 | GTTGCC | -0.732 | 0.015 | -0.471 | -0.624 | -0.783
43 | GCTACA | 0.542 | 0.648 | 0.804 | 0.712 | 0.454
44 | CCTTAA | -0.119 | -0.512 | -1.04 | -0.19 | -0.173
45 | ATGAAA | 1.41 | -1.7 | -0.854 | 0.975 | 2.77
46 | CGCAAG | -0.51 | -0.088 | 0.008 | -0.403 | -0.483
47 | GCCAGC | 0.084 | 0.004 | 0.608 | 0.101 | -0.269
48 | AGTACA | 0.284 | 0.335 | 0.655 | 0.145 | 0.095
49 | GCTGCC | 0.04 | -0.055 | 0.21 | 0.131 | -0.364
50 | GTGTGG | -0.011 | 0.176 | -0.084 | 0.06 | 0.078
